Here are results for 15 compounds from US11999727B2 (Tango Therapeutics, Inc., priority 2020, dated 2024).

Experiment [1] concerns the target T1, PRMT5 (Homo sapiens, UniProt O14744).
T1 construct: purchased Viva (custom protein)
The experiment is described as follows: PRMT5 biochemical IC50 assay with MTA as cofactor.

Experiment [2] relates to HAP1 MTAP-deleted cell line. Briefly: Viability assay, MTAP-deleted cell line. The experiment is classed as cell-based. Particulars: Homo sapiens. The source says:
Table 1 additionally indicates IC50 values in a viability assay for the MTAP-deleted cell line (column 10), indicating the effect of treatment with compound on cell survival.

The target in experiment [3] is T1, PRMT5. The experiment is described as follows: PRMT5 biochemical IC50 assay with no cofactor. An excerpt:
Table 1 indicates IC50 values (μM) against PRMT5 for exemplary compounds in the presence of SAM as cofactor, with no cofactor, and with MTA as cofactor, respectively (columns 4-6). […] Ki values can be calculated from the IC50 values as described in the Examples section. As detailed in the Examples section, for the assay performed in the presence of SAM, IC50=Ki×1.5 (Ki=IC50/1.5).

The target of experiment [4] is T1, PRMT5. The experiment is described as follows: PRMT5 biochemical IC50 assay with SAM as cofactor.
Where [5] appears, read: read-out: No Cofactor/ rel IC50.

T1 sequence (O14744 whole entry): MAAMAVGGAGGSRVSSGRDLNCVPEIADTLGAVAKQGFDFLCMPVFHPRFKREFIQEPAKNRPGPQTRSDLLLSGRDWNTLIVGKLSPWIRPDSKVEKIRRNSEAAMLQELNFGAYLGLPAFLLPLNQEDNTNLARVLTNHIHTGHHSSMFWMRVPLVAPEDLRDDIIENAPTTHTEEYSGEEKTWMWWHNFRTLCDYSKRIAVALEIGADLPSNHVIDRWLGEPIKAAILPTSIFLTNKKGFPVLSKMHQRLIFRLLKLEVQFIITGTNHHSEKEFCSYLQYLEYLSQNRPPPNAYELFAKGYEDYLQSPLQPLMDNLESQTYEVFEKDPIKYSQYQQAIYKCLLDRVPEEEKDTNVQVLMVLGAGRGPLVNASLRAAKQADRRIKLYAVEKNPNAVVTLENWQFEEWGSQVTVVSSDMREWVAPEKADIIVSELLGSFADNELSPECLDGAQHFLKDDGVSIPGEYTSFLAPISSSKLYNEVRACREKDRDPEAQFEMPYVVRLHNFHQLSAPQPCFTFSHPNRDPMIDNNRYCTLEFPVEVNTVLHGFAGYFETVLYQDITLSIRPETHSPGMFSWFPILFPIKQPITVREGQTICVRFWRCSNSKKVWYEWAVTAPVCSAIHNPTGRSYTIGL
T1 sequence (Q9BQA1 whole entry partner): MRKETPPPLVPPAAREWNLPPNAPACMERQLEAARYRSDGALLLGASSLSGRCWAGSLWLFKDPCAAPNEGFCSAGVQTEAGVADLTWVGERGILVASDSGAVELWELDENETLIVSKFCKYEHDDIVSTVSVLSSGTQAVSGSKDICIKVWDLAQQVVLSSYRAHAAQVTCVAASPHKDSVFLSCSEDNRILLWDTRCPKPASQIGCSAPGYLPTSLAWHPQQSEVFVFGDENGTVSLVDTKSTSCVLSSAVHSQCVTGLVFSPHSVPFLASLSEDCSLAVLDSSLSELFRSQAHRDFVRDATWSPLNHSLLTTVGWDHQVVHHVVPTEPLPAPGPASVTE

As for `NC(=O)c1cncc(NC(=O)C(=O)N2C[C@H](OC(F)F)CC[C@H]2c2ccccc2)c1` (racemic) [Compound 379, 5-[[2-[(2S,5R)-5-(Difluoromethoxy)-2-phenyl-1-piperidyl]-2-oxo-acetyl]amino]pyridine-3-carboxamide], the IC50 in experiment [1] was 50 to 500 nM; in experiment [2] it was above 10000 nM; in experiment [3] (read-out: No Cofactor/rel IC50), above 500 nM; in experiment [4], 50 to 500 nM.
For the compound `NC(=O)c1cncc(NC(=O)C(=O)N2CCCCC2c2cc[nH]c(=O)c2)c1` (racemic) [Compound 262, 5-[[2-oxo-2-[2-(2-oxo-1H-pyridin-4-yl)-1-piperidyl]acetyl]amino]pyridine-3-carboxamide], the IC50 is 50 to 500 nM in experiment [1], above 10000 nM in experiment [2], above 500 nM in experiment [3] (read-out: No Cofactor/rel IC50) and above 500 nM in experiment [4].
In the case of `C[C@@H]1CC[C@@H](c2cnc3cnn(C)c3c2)N(C(=O)C(=O)Nc2cncc(C(N)=O)c2)C1` (racemic) [Compound 178, rac-5-{2-[(2R,5S)-5-Methyl-2-{1-methyl-1H-pyrazolo[4,3-b]pyridin-6-yl}piperidin-1-yl]-2-oxoacetamido}pyridine-3-carboxamide], the IC50 in experiment [1] is 50 to 500 nM; in experiment [2], above 10000 nM; in experiment [3] (read-out: No Cofactor/rel IC50), above 500 nM; in experiment [4], above 500 nM.
As for `C[C@@H]1CC[C@@H]([C@H]2C[C@@H](O)C2)N(C(=O)C(=O)Nc2cncc(C(N)=O)c2)C1` (racemic) [Compound 407, rac-5-[[2-[(2R,5S)-2-(3-hydroxycyclobutyl)-5-methyl-1-piperidyl]-2-oxo-acetyl]amino]pyridine-3-carboxamide], the IC50 in experiment [1] is 50 to 500 nM; in experiment [2], above 10000 nM; in experiment [3] (read-out: No Cofactor/rel IC50) it was above 500 nM; in experiment [4] it was 50 to 500 nM.
`C[C@@H]1CC[C@@H]([C@H]2C[C@H](O)C2)N(C(=O)C(=O)Nc2cncc(C(N)=O)c2)C1` (racemic) [Compound 413, rac-5-[[2-[(2R,5S)-2-(3-hydroxycyclobutyl)-5-methyl-1-piperidyl]-2-oxo-acetyl]amino]pyridine-3-carboxamide]: the IC50 in experiment [1] is 50 to 500 nM; in experiment [2], above 10000 nM; in experiment [3] (read-out: No Cofactor/rel IC50), above 500 nM; in experiment [4] it was above 500 nM.
For `C[C@@H]1CC[C@@H](c2ccc(OC3CCOCC3)cc2)N(C(=O)C(=O)Nc2cncc(C(N)=O)c2)C1` (racemic) [Compound 269, rac-5-{2-[(2R,5S)-5-Methyl-2-[4-(oxan-4-yloxy)phenyl]piperidin-1-yl]-2-oxoacetamido}pyridine-3-carboxamide], the IC50 was 50 to 500 nM in experiment [1], above 10000 nM in experiment [2], above 500 nM in experiment [3] (read-out: No Cofactor/rel IC50) and 50 to 500 nM in experiment [4].
On to `C[C@@H]1CC[C@@H](c2ccc(C3CCC3)cc2)N(C(=O)C(=O)Nc2cncc(C(N)=O)c2)C1` (racemic) [Compound 406, rac-5-{2-[(2R,5S)-2-(4-Cyclobutylphenyl)-5-methylpiperidin-1-yl]-2-oxoacetamido}pyridine-3-carboxamide], for which the IC50 in experiment [1] fell in the range of 50 to 500 nM; in experiment [2], 1000 to 10000 nM; in experiment [3] (read-out: No Cofactor/rel IC50) it was 50 to 500 nM; in experiment [4], 50 to 500 nM.
Consider `Cc1cc(NC(=O)C(=O)N2C[C@H](C)CC[C@H]2C2CCNC(=O)C2)cnc1N` (mixture of isomers) [Compound 156, N-(6-amino-5-methyl-3-pyridyl)-2-[(2R,5S)-5-methyl-2-(2-oxo-4-piperidyl)-1-piperidyl]-2-oxo-acetamide], for which the IC50 in experiment [1] is 50 to 500 nM; in experiment [2], above 10000 nM; in experiment [3] (setting [5]), above 500 nM; in experiment [4], 50 to 500 nM.
For `Cc1cc(NC(=O)C(=O)N2C[C@@H](C)C(F)(F)C[C@@H]2c2ccc3scnc3c2)cnc1N` (single isomer, unassigned) [Compound 1049], the IC50 in experiment [1], in experiment [3] (read-out: No Cofactor/rel IC50) and in experiment [4] was 50 to 500 nM each time.
On to `COc1ncc(NC(=O)C(=O)N2C[C@@H](C)C(F)(F)C[C@@H]2c2ccc(NS(C)(=O)=O)cc2)cc1C(N)=O` (single isomer, unassigned) [Compound 1067], for which the IC50 in experiment [1], in experiment [3] (read-out: No Cofactor/rel IC50) and in experiment [4] was 50 to 500 nM throughout.
In the case of `Cc1cc(NC(=O)C(=O)N2C[C@H](C(N)=O)CC[C@@H]2c2ccccc2)cnc1N` (racemic) [Compound 328], the IC50 in experiment [1] was 50 to 500 nM; in experiment [2], above 10000 nM; in experiment [3] (read-out: No Cofactor/rel IC50), above 500 nM; in experiment [4], above 500 nM.
On to `[2H]c1c([2H])c([C@@]2([2H])CC[C@H](C)CN2C(=O)C(=O)Nc2cncc(C(N)=O)c2)c([2H])c([2H])c1F` [Compound 1060], for which the results for the IC50 in experiment [1], in experiment [3] (read-out: No Cofactor/rel IC50) and in experiment [4] were below 50 nM, 50 to 500 nM and 50 to 500 nM, respectively.
For the compound `C[C@@H]1CC[C@@H](c2cc(F)c(F)c(F)c2)N(C(=O)C(=O)Nc2cncc(C(N)=O)c2)C1` (racemic) [Compound 403, rac-5-{2-[(2R,5S)-5-Methyl-2-(3,4,5-trifluorophenyl)piperidin-1-yl]-2-oxoacetamido}pyridine-3-carboxamide], the IC50 in experiment [1] is 50 to 500 nM; in experiment [2] it was above 10000 nM; in experiment [3] (read-out: No Cofactor/rel IC50), above 500 nM; in experiment [4], 50 to 500 nM.
Regarding `Cc1cc(NC(=O)C(=O)N2CC(C)C(F)(F)C[C@@H]2c2cccc(Cl)c2)cnc1N` (single isomer, unassigned) [Compound 1045], the IC50 in experiment [1], in experiment [3] (read-out: No Cofactor/rel IC50) and in experiment [4] was above 500 nM each time.
For the compound `CC(=O)N1CCC(c2cccc([C@H]3CC[C@H](C)CN3C(=O)C(=O)Nc3cncc(C)c3)c2)CC1` (racemic) [Compound 44, rac-2-((2R,5S)-2-(3-(1-acetylpiperidin-4-yl)phenyl)-5-methylpiperidin-1-yl)-N-(5-methylpyridin-3-yl)-2-oxoacetamide], the IC50 in experiment [1] was 50 to 500 nM; in experiment [2] it was above 10000 nM; in experiment [3] (setting [5]), above 500 nM; in experiment [4], above 500 nM.
